By IC50 is meant the dose at which the fit gives 50% viability; fits outside the tested doses are given as limits. For AUC the same curve is integrated over the 256-fold range of doses and scaled to a fraction; the more sensitive the line, the further below 1. For part of these data: An inferred top dose was calculated from the reported fits. For part of these data: Where an entry number is given, a second screen of the drug exists; the two often differ.
What was measured:
Assay in all cases: Viability of human cancer cell lines after 72 h of drug (GDSC screen)
Tamoxifen = compound: CC/C(=C(\c1ccccc1)c1ccc(OCCN(C)C)cc1)c1ccccc1 [Tamoxifen]; conditions: top dose 5 µM
Method: (§1)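 Human cancer cell lines in 384-well plates, medium with 10% serum, drug for 72 h over a 256-fold dose range (nine 2-fold or five 4-fold steps up to the top dose). Adherent lines were fixed and stained with the nucleic acid dye Syto60, suspension lines read with resazurin; signal relative to control wells, capped at 0 and 100%. One two-parameter sigmoid per drug and line, fitted in a mixed model over all curves with the slope shared within a line.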

Elesclomol = compound: CN(NC(=O)CC(=O)NN(C)C(=S)c1ccccc1)C(=S)c1ccccc1 [Elesclomol]; conditions: top dose 0.2 µM; top dose inferred
Method: as §1

Bleomycin = compound: Cc1c(N)nc([C@H](CC(N)=O)NC[C@H](N)C(N)=O)nc1C(=O)N[C@H](C(=O)N[C@H](C)[C@@H](O)[C@H](C)C(=O)N[C@H](C(=O)NCCc1nc(-c2nc(C(=O)NCCC[S+](C)C)cs2)cs1)[C@@H](C)O)[C@@H](OC1OC(CO)C(O)C(O)C1OC1OC(CO)C(O)C(OC(N)=O)C1O)c1cnc[nH]1 [Bleomycin]
Method: as §1

Masitinib = compound: Cc1ccc(NC(=O)c2ccc(CN3CCN(C)CC3)cc2)cc1Nc1nc(-c2cccnc2)cs1 [Masitinib]; conditions: top dose 20 µM
Method: as §1

BX-912 = compound: O=C(Nc1cccc(Nc2ncc(Br)c(NCCc3cnc[nH]3)n2)c1)N1CCCC1 [BX-912]; conditions: top dose 10.24 µM; top dose inferred
Method: as §1

OSI-930 = compound: O=C(Nc1ccc(OC(F)(F)F)cc1)c1sccc1NCc1ccnc2ccccc12 [OSI-930]; conditions: top dose 10.24 µM
Method: as §1

NSC-87877 = compound: O=S(=O)(O)c1ccc2cc(N=Nc3cc(S(=O)(=O)O)c4cccnc4c3O)ccc2c1 [NSC-87877]; conditions: top dose 16 µM; top dose inferred
Method: as §1

LAQ824 = compound: O=C(/C=C/c1ccc(CN(CCO)CCc2c[nH]c3ccccc23)cc1)NO [LAQ824]; conditions: top dose 1.024 µM; top dose inferred
Method: as §1

VNLG/124 = compound: CCCC(=O)OCc1ccc(OC(=O)/C=C(C)/C=C/C=C(C)/C=C/C2=C(C)CCCC2(C)C)cc1 [VNLG/124]; conditions: top dose 5.12 µM; top dose inferred
Method: as §1

[1] = top dose 50 µM, screen: GDSC drug entry 1378, top dose inferred
[2] = top dose 64 µM, screen: GDSC drug entry 190

Cell Line: SK-MEL-31 (melanoma, adherent)
- AUC (Tamoxifen): 0.975
- IC50 (Tamoxifen): > 5 µM
- AUC (Elesclomol): 0.63
- IC50 (Elesclomol): 0.0317 µM
- AUC (Bleomycin; [1]): 0.927
- IC50 (Bleomycin; [1]): > 50 µM

Cell Line: SN12C (kidney, adherent)
- AUC (Tamoxifen): 0.977
- IC50 (Tamoxifen): > 5 µM
- AUC (Masitinib): 0.966
- IC50 (Masitinib): > 20 µM
- AUC (BX-912): 0.869
- IC50 (BX-912): > 10.2 µM
- AUC (OSI-930): 0.969
- IC50 (OSI-930): > 10.2 µM
- AUC (NSC-87877): 0.981
- IC50 (NSC-87877): > 16 µM
- AUC (LAQ824): 0.675
- IC50 (LAQ824): 0.21 µM
- AUC (VNLG/124): 0.983
- IC50 (VNLG/124): > 5.12 µM
- AUC (Bleomycin; [1]): 0.663
- IC50 (Bleomycin; [1]): 9.4 µM
- AUC (Bleomycin; [2]): 0.831
- IC50 (Bleomycin; [2]): 47.8 µM

Cell Line: SNU-398 (liver, adherent)
- AUC (Tamoxifen): 0.976
- IC50 (Tamoxifen): > 5 µM
- AUC (Masitinib): 0.894
- IC50 (Masitinib): > 20 µM
- AUC (BX-912): 0.863
- IC50 (BX-912): 9.4 µM
- AUC (OSI-930): 0.984
- IC50 (OSI-930): > 10.2 µM
- AUC (NSC-87877): 0.986
- IC50 (NSC-87877): > 16 µM
- AUC (LAQ824): 0.277
- IC50 (LAQ824): 0.0144 µM
- AUC (VNLG/124): 0.976
- IC50 (VNLG/124): > 5.12 µM
- AUC (Bleomycin; [1]): 0.61
- IC50 (Bleomycin; [1]): 6.33 µM
- AUC (Bleomycin; [2]): 0.03
- IC50 (Bleomycin; [2]): < 0.25 µM

Cell Line: SUP-B8 (B-cell leukaemia, suspension)
- AUC (Tamoxifen): 0.98
- IC50 (Tamoxifen): > 5 µM
- AUC (Elesclomol): 0.747
- IC50 (Elesclomol): 0.0635 µM
- AUC (Bleomycin; [1]): 0.807
- IC50 (Bleomycin; [1]): 25.5 µM

Cell Line: SW156 (kidney, adherent)
- AUC (Tamoxifen): 0.984
- IC50 (Tamoxifen): > 5 µM
- AUC (Masitinib): 0.927
- IC50 (Masitinib): > 20 µM
- AUC (BX-912): 0.965
- IC50 (BX-912): > 10.2 µM
- AUC (OSI-930): 0.973
- IC50 (OSI-930): > 10.2 µM
- AUC (NSC-87877): 0.986
- IC50 (NSC-87877): > 16 µM
- AUC (LAQ824): 0.528
- IC50 (LAQ824): 0.077 µM
- AUC (VNLG/124): 0.986
- IC50 (VNLG/124): > 5.12 µM
- AUC (Bleomycin; [1]): 0.836
- IC50 (Bleomycin; [1]): 38.5 µM
- AUC (Bleomycin; [2]): 0.492
- IC50 (Bleomycin; [2]): 3.81 µM

Cell Line: SW837 (large intestine, adherent)
- AUC (Tamoxifen): 0.968
- IC50 (Tamoxifen): > 5 µM
- AUC (Masitinib): 0.972
- IC50 (Masitinib): > 20 µM
- AUC (BX-912): 0.903
- IC50 (BX-912): > 10.2 µM
- AUC (OSI-930): 0.969
- IC50 (OSI-930): > 10.2 µM
- AUC (NSC-87877): 0.983
- IC50 (NSC-87877): > 16 µM
- AUC (LAQ824): 0.302
- IC50 (LAQ824): 0.0147 µM
- AUC (VNLG/124): 0.977
- IC50 (VNLG/124): > 5.12 µM
- AUC (Bleomycin; [1]): 0.858
- IC50 (Bleomycin; [1]): > 50 µM
- AUC (Bleomycin; [2]): 0.401
- IC50 (Bleomycin; [2]): 1.96 µM

Cell Line: SW900 (lung squamous cell carcinoma, adherent)
- AUC (Tamoxifen): 0.973
- IC50 (Tamoxifen): > 5 µM
- AUC (Masitinib): 0.943
- IC50 (Masitinib): > 20 µM
- AUC (BX-912): 0.984
- IC50 (BX-912): > 10.2 µM
- AUC (OSI-930): 0.975
- IC50 (OSI-930): > 10.2 µM
- AUC (NSC-87877): 0.983
- IC50 (NSC-87877): > 16 µM
- AUC (LAQ824): 0.583
- IC50 (LAQ824): 0.113 µM
- AUC (VNLG/124): 0.982
- IC50 (VNLG/124): > 5.12 µM
- AUC (Bleomycin; [1]): 0.564
- IC50 (Bleomycin; [1]): 4.81 µM
- AUC (Bleomycin; [2]): 0.832
- IC50 (Bleomycin; [2]): 50.3 µM

Reference: the supplement of paper PMC4967469
